# Results as given in article PMC6919601, “Identification of Plasmodium dipeptidyl aminopeptidase allosteric inhibitors by high throughput screening” (PLoS ONE, 2019).
# Among all 110,000 compounds or so, about 230 (0.21%) showed an effect of 50% or more. This is one part of the list.
# Molecular target: DPAP1 (Plasmodium falciparum, UniProt Q8IIJ9)
# Assay: primary screen, percent inhibition; read by cleavage of a fluorogenic dipeptide substrate; higher = more effect of the substance
# Set-up: species or system P. falciparum D10 trophozoite lysates; single well
# 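Also: 30 min substrate incubation versus DMSO and 10 µM JCP410 controls.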
# Chain of DPAP1 (Q8IIJ9 whole entry, looked up): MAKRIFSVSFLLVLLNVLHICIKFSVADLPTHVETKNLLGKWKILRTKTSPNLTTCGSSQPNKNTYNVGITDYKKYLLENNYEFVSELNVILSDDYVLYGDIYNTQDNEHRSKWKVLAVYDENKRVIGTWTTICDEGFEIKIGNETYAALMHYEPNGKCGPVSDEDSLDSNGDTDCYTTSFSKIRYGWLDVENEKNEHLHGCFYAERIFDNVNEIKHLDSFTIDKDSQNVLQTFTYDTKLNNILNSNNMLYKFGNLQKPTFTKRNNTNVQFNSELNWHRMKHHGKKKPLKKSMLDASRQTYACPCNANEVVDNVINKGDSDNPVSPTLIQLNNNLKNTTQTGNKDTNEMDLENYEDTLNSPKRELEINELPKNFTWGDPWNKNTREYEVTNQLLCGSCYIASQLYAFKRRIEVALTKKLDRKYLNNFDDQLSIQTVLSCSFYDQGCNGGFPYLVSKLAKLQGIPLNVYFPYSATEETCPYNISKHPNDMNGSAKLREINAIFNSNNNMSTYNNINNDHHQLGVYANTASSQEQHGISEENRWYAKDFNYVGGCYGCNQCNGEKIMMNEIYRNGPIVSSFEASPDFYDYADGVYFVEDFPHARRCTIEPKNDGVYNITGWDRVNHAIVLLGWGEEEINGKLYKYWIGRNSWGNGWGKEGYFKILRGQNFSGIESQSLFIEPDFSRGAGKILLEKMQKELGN
row,Structure (SMILES),% Inhibition @ 10 uM [%]
1,Cn1cc(NC(=O)NCc2ccco2)c2ccccc2c1=O,4.2
2,COc1cc(OC)cc(C(=O)N2CCN(Cc3ccc(OC)c(OCc4ccccc4)c3)CC2)c1,-5.28
3,O=C(Nc1ccc(O)cc1)c1ccc2c(c1)C(=O)N(Cc1ccco1)C2=O,-3.04
4,Nc1nc(O)c2ncn([C@H]3C[C@H](O)[C@@H](CO)O3)c2n1,-3.33
5,COc1ccccc1CNC(=O)Cn1ncc2c3ccccc3n(Cc3ccccc3)c2c1=O,1.8
6,COc1cccc(CN2CCCC2CO)c1 (stereo not drawn),1.62
7,Cc1ccc2c(C)nc(Nc3ncc4c(n3)CCCC4=O)nc2c1,-0.545
8,CNC(C)C1Oc2ccccc2OC1(C)C (stereo not drawn),6.7
9,Cc1nc(N)sc1-c1csc(Nc2cccc(O)c2)n1,9.29
10,CN1CCN(C(=O)c2c(NC(=O)c3ccccc3F)sc3c2CCCCC3)CC1,-2.13
11,Cc1cc(/C=C(/C#N)C(=O)Nc2ccc(F)cc2)c(C)n1-c1ccc(Cl)c(Cl)c1,4.57
12,COCCN1C(=O)c2ccccc2C(C(=O)NCc2cccnc2)C1c1cn(C)c2ccccc12 (stereo not drawn),-0.999
13,CCn1c(SCc2cc3c(cc2Br)OCO3)nnc1-c1ccoc1C,-1.85
14,CCn1c(C)cc(/C=C2\S/C(=N/c3ccc(N4CCOCC4)cc3)N(C)C2=O)c1C,-1.98
15,COc1ccc2c(c1)CC/C(=C\c1cccn1C)C2=O,-2.12
16,CC(C)Oc1ccc(C(=O)Nc2ccc(N3CCN(S(C)(=O)=O)CC3)cc2)cc1,-4.12
17,COc1ccc(CN(C)S(=O)(=O)c2nnc(NC(=O)c3cccc4ccccc34)s2)cc1OC,-1.77
18,CCOc1ccc(-n2c(C)nc3cc(C(=O)NCCCN4CCOCC4)ccc32)cc1,-0.458
19,CC1CN(Cc2nc3c(c(=O)[nH]c(=O)n3C)n2CCc2ccccc2)CC(C)O1 (stereo not drawn),-2.92
20,COc1cccc(-n2nnc3c(=O)n(CC(=O)N4CCCC4)cnc32)c1,-2.16
21,COc1cc(C(CC(=O)NCc2ccc(Cl)cc2)N2Cc3ccccc3C2=O)cc(OC)c1OC (stereo not drawn),-0.943
22,O=C(COc1ccccc1)NCc1ccccc1,-0.274
23,OCCOCCNc1ncnc2c1c(-c1ccccc1)cn2-c1ccccc1,4.77
24,CCC/N=c1\c(NC(=O)CC(C)C)c(O)oc2ccccc12,-2.23
25,COC(=O)/C(=C/c1c[nH]c2ccccc12)NC(C)=O,5.36
26,CC(C)C[C@H](NC(=O)NCc1ccc(Cl)cc1Cl)C(=O)NCC#N,-4.72
27,Cc1cc(C(C)(C)C)n2ncnc2n1,2.03
